Assay results reported in the supplement of paper PMC10126150.
Values marked as one replicate rest on one cluster of the flow cell; about a third of the high ones do not repeat.

tested on: ATP; assay: switch fluorescence ratio, 500 uM ATP over buffer (Cy3 cluster intensity, sum of 5 cycles each) (fold (ratio)); higher = stronger signal-on switching upon ATP binding; sequences stand for … in TCGTCGGCAGCGTCAGATGTGTATAAGAGACAGTTTTTTTTTTTTTTTTTTTTTTTTT…TC; settings: aptamer strand: ATP DNA aptamer (quencher-CACCTGGGGGAGTATTGCGGAGGAAGG + anchor), 100 nM annealed; ATP concentration: 500 uM; one replicate
How it was run: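 Five buffer/ATP imaging cycles were run on Cy3-labelled switching-strand clusters on a modified Illumina MiSeq flow-cell, with NaOH stripping and re-annealing between cycles. In each cycle, clusters annealed to 100 nM quencher-labelled ATP aptamer were imaged in selection buffer, then after 15 min with 500 uM ATP at 22 °C. Per cluster, the fluorescence ratio is summed target-cycle over summed buffer-cycle Cy3 intensity, averaged per switch-domain sequence. Only clusters within 100-1000 RFU were kept.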
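Note: ATP exposure 15 min at 22 °C before imaging.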

Sequence	switch fluorescence ratio
TACCCGACT	1.05
TACCCGTATT	1.02
TACCCGTCCT	1.11
TACCCGTCTC	1.02
TACCCGTTGT	1.08
TACCCGTTTA	1.04
TACCCTTTA	1.01
TACCGAGATC	1.13
TACCGCCAAG	1.17
TACCGTAATG	1.34
TACCTGCCAT	1.08
TACCTGTGTG	0.966
TACCTTTCTC	1.02
TACGAACGTT	1.17
TACGACCGCT	1.37
TACGACGACG	1.03
TACGACTCAC	1.5
TACGAGGGAA	1.02
TACGATACTG	1.48
TACGATCCGG	1.04
TACGATGCAT	5.31
TACGCACGT	1.42
TACGCCCCTC	1.23
TACGCGTTCT	1.01
TACGGAAGCC	0.978
TACGGAGGTT	0.965

Sequence	switch fluorescence ratio
TACGGCCACC	1.42
TACGGCGCA	0.939
TACGGCTACT	1.26
TACGGGAGGA	1.05
TACGGTATG	1.08
TACGGTCTCC	1
TACGTACTTA	1.44
TACGTAGCGG	1.26
TACGTCCCGT	1.01
TACGTCTCTT	0.999
TACGTGAGTT	1
TACGTGCACT	1.03
TACGTGCCCT	1.06
TACGTGGAAT	1
TACGTTTTTA	1.01
TACTAAATGG	1.01
TACTAATTA	1.06
TACTATCACT	1.02
TACTATTACC	1.24
TACTCAAGCA	1.47
TACTCACCGG	1.48
TACTCATGAC	1.08
TACTCATGTA	0.979
TACTCCGGTA	3.2
TACTCGATAT	0.999
TACTCTAGTC	0.983

Sequence	switch fluorescence ratio
TACTCTGTTT	1.06
TACTCTTTGG	1.03
TACTGAATCC	1.07
TACTGACAT	1.21
TACTGATCAT	1.01
TACTGGCGAA	0.983
TACTGGGATT	1.02
TACTGTCACT	1.3
TACTGTCGT	1.03
TACTGTGTTC	1.05
TACTGTTACA	1.25
TACTGTTGGT	1.02
TACTTAGAGC	1.08
TACTTCTAGT	0.972
TACTTCTCGG	1.04
TACTTGGAAG	1.04
TACTTGTACT	1.13
TACTTGTCAT	1.03
TACTTGTGAC	1.05
TACTTGTGTC	1.05
TACTTTATAT	1.09
TACTTTGTT	0.984
TAGAAACTGC	1.5
TAGAAAGGCT	0.931
TAGAACATCG	1.04
TAGAACGCTT	1.01

Sequence	switch fluorescence ratio
TAGAAGGAG	1.04
TAGAAGGCTC	1.17
TAGAAGGGG	1.19
TAGAATCTTC	0.996
TAGAATGAAC	0.977
TAGAATGTAT	0.958
TAGACACGTT	0.991
TAGACATTAC	1.41
TAGACCGGGA	1.01
TAGACCGTAT	1.33
TAGACGAGAA	0.994
TAGACGCTCT	1.05
TAGACGTTTG	1
TAGACTATTT	0.987
TAGACTTCCG	1.03
TAGAGAGACT	0.972
TAGAGATCA	1.01
TAGAGATTTA	0.993
TAGAGCGCTT	1
TAGAGCTCAC	1.02
TAGAGCTGGT	0.977
TAGAGGTGCA	1
TAGAGTGAAG	0.993
TAGAGTGAGA	1.03
TAGAGTGGTC	1
TAGATAACGG	1.05

Sequence	switch fluorescence ratio
TAGATACACT	1.01
TAGATACAGT	1.06
TAGATAGTTC	0.971
TAGATCAAAT	0.972
TAGATCCCGC	0.982
TAGATGAATA	1.03
TAGATTATTC	0.987
TAGATTTGTC	0.924
TAGCAATCT	3.37
TAGCACCGGG	1.11
TAGCACTTTG	0.99
TAGCAGCTA	1.02
TAGCAGGATC	1.08
TAGCAGGCCA	1.03
TAGCATACCG	1.06
TAGCATAGAA	0.97
TAGCATATTG	1.01
TAGCATGAAT	1.02
TAGCATTGTT	0.982
TAGCATTTAG	1.04
TAGCCCGTCA	1.06
TAGCCGCGAC	1.81
TAGCCGCTAT	1.27
TAGCGAATTG	1.01
TAGCGAGGGA	1
TAGCGCATGT	0.986

Sequence	switch fluorescence ratio
TAGCGCTAAA	1.22
TAGCGGGACG	1.07
TAGCGGGTAT	1.04
TAGCGGGTC	1.05
TAGCGTTCGG	0.987
TAGCTACAAA	1.09
TAGCTACTAA	1.02
TAGCTACTAG	1.03
TAGCTATCGT	0.996
TAGCTCCTAG	1.04
TAGCTGATCA	0.988
TAGCTTACAG	1.08
TAGCTTTTAC	3.42
TAGGAAATTC	0.989
TAGGAACGAA	1.01
TAGGACCGTA	1.02
TAGGAGTTGG	0.995
TAGGATCCCA	1.06
TAGGATGCCT	1.07
TAGGATGCGA	1.04
TAGGCATACC	0.991
TAGGCCCGGT	1.01
TAGGCCGGTT	0.967
TAGGCCTTTC	1.33
TAGGCGACAA	0.998
TAGGCGGGAT	1

Sequence	switch fluorescence ratio
TAGGCGTGAG	1
TAGGCGTTCC	1.34
TAGGCTACTT	0.979
TAGGCTATGC	1.06
TAGGCTCACA	1.04
TAGGGAGACG	0.964
TAGGGATACG	1.02
TAGGGATGGC	0.992
TAGGGCGAGA	0.977
TAGGGCTTCT	0.994
TAGGGTATCG	0.928
TAGGGTCCTA	0.979
TAGGGTCG	1.01
TAGGTACCGT	1.02
TAGGTACCTT	0.969
TAGGTCATCA	1.01
TAGGTCTATG	0.961
TAGGTCTCGG	1.02
TAGGTCTGAA	1
TAGGTGTAGC	1.11
TAGGTTAGTC	0.948
TAGGTTG	1.05
TAGGTTGCAG	0.971
TAGGTTGGC	1.01
TAGGTTGTA	0.988
TAGGTTGTCC	1.02

Sequence	switch fluorescence ratio
TAGTAACGTG	0.946
TAGTAATA	1.03
TAGTACAATT	1.02
TAGTACAGC	0.987
TAGTACGT	1.06
TAGTACTAGT	1.05
TAGTACTGGT	0.965
TAGTAGGTTT	0.988
TAGTATATCC	0.952
TAGTATCAAG	0.963
TAGTATGCGG	0.97
TAGTATTTT	1.02
TAGTCACAGC	1.02
TAGTCCGATA	0.984
TAGTCCGTTG	1.01
TAGTCGTGTT	1
TAGTCTTCGG	1.01
TAGTCTTGT	0.973
TAGTGAACTG	0.958
